In publication PMC2572687 (Biochemistry, 2008):

Molecular target: the molecule itself
Assay: cross-linking

B1: C99, the 99-residue transmembrane C-terminal domain of the human amyloid precursor protein (APP), wild type (domain or fragment)
chain: not shown
  stoichiometry N: 2
